Measurements as given in PubChem BioAssay AID1030 (National Center for Advancing Translational Sciences (NCATS), 2008).
Screen size: about 220,000 compounds; about 16,000 (7.3%) were called active. Inconclusive means that the source gave no clear call. Such entries were picked first, then a sample of the others. Calls come from the whole dose curve; as a rule, active = well fitted inhibition curve with a large enough effect (not every such curve was filed as active); inconclusive = small, poorly fitted or top-dose-only effect, or another doubt; inactive = no such curve, though single readings can be large or run the other way. No potency is given beside an inconclusive call; the fits are too rough.

target: Aldehyde dehydrogenase 1A1 (Homo sapiens) (UniProt P00352); assay: qHTS Assay for Inhibitors of Aldehyde Dehydrogenase 1 (ALDH1A1); details: Purified ALDH1A1, NADH fluorescence, propionaldehyde substrate; series mostly up to 75.3 µM; activity, negative = inhibition: at the top concentration;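 for activity, negative = inhibition: plate controls were no enzyme wells and a reference inhibitor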
UniProt P00352, sequence (P00352 whole entry, looked up): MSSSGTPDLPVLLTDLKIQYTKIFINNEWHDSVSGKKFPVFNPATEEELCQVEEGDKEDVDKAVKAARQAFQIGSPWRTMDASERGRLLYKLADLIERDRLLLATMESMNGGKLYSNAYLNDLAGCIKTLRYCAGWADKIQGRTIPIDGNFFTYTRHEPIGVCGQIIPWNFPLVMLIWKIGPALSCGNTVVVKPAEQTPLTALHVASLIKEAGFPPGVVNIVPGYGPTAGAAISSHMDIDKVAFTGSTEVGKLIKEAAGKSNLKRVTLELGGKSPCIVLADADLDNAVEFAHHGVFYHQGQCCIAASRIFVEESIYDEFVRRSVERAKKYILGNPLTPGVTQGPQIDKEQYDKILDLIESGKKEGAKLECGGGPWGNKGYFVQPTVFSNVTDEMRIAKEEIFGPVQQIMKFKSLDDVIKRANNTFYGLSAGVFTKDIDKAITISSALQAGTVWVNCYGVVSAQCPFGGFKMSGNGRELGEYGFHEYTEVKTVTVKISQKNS
Potency is the fitted concentration of half-maximal effect; tags give direction and shape of the fitted curve.

**Q.** How did the “activity, negative = inhibition” value turn out when `C#CC[N+]1(CC#Cc2ccccc2)CCCC1` was run?
**A.** inactive: -4.1%

**Q.** With `Cc1ccccc1NC(=O)Nc1ccccc1N1CCCCC1` as the compound, how does the “activity, negative = inhibition” value read?
**A.** inactive: 3.48%

**Q.** Which Potency does the source give for `COCCCn1c(SCc2cc(=O)[nH]c3ccccc23)nnc1-c1ccco1` here?
**A.** inconclusive [inhibitor, single point]

**Q.** With `CC1(N)CCC(C(C)(C)N)CC1` (stereo unspecified) as the compound, how does the Potency read?
**A.** inconclusive [inhibitor, single point]

**Q.** How did the Potency turn out when `CCOc1ccc(C2CC(c3cccc(C)c3)n3ncnc3N2)cc1` (stereo unspecified) was run?
**A.** inconclusive [inhibitor, single point]

**Q.** `CNC(=O)c1cc2cc(OC)ccc2oc1=N` was tested. Which Potency did it give?
**A.** inconclusive [inhibitor, single point]

**Q.** With `COC(=O)c1cnn2c(C)c(Cc3cccc(F)c3)c(C)nc12` as the compound, how does the Potency read?
**A.** inconclusive [inhibitor, partial curve]

**Q.** How did the Potency turn out when `CCN1CCN(CC(=O)Nc2ccc(Cl)c(S(=O)(=O)N(C)C)c2)CC1` was run?
**A.** active: 3.55 µM

**Q.** With `CCOC(=O)c1ccc(NC(=O)CCc2ccc(C)o2)cc1` as the compound, how does the Potency read?
**A.** inconclusive [inhibitor, single point]

**Q.** Which Potency does the source give for `c1ccc(Cn2cc(CN3CCCCO3)c(-c3ccc4c(c3)OCO4)n2)cc1` here?
**A.** active: 31.6 µM

**Q.** Which “activity, negative = inhibition” value does the source give for `CCc1c(C(=O)N2CCN(c3ccccc3F)CC2)[nH]c(C)c1C(C)=O` here?
**A.** inactive: 11.1%

**Q.** How did the Potency turn out when `COc1ccc(-c2cc3nc(-c4ccccc4)cc(N4CCC5(CC4)OCCO5)n3n2)cc1` was run?
**A.** inconclusive [inhibitor, partial curve]

**Q.** With `O=C(Nc1ccc(Cl)cc1C(F)(F)F)c1ccccc1` as the compound, how does the “activity, negative = inhibition” value read?
**A.** inactive: 1%

**Q.** For `CC(=O)c1ccc(NC(=O)CSc2nnc(NC(=O)CN3CCOCC3)s2)cc1`, which “activity, negative = inhibition” value is on record?
**A.** inactive: -0.465%

**Q.** How did the Potency turn out when `CC(=O)c1ccc(NC(=O)C(C)Sc2ccccn2)cc1` (stereo unspecified) was run?
**A.** inconclusive [inhibitor, partial curve]

**Q.** `O=C(CSCc1cnn(-c2ccccc2)c1-n1cccc1)NCC1CCCO1` (stereo unspecified) was tested. Which Potency did it give?
**A.** inconclusive [inhibitor, single point]

**Q.** With `Cc1ccc2[nH]c(=O)c(COC(=O)c3ccccn3)cc2c1` as the compound, how does the Potency read?
**A.** inconclusive [inhibitor, single point]

**Q.** Which Potency does the source give for `O=C(CN1CCCN(S(=O)(=O)c2ccc(Br)s2)CC1)Nc1ccc(Cl)cc1` here?
**A.** active: 4.47 µM

**Q.** Which Potency does the source give for `S=C(Nc1cccc(Cl)c1)Nc1ccc2cn[nH]c2c1` here?
**A.** active: 28.2 µM

**Q.** For `Cc1ccccc1CSCC(Nc1ccc(C(=O)O)cc1[N+](=O)[O-])C(=O)O` (stereo unspecified), which Potency is on record?
**A.** active: 15.8 µM

**Q.** With `NS(=O)(=O)c1ccc(CCNC(=O)C2CCN(S(=O)(=O)c3ccccc3)CC2)cc1` as the compound, how does the Potency read?
**A.** inconclusive [inhibitor, partial curve, poor fit]

**Q.** How did the Potency turn out when `Cc1cccc(C2=NN(c3ccc(Br)cc3)[C@@H](C(=O)N3CCOC3=O)[C@@H]2c2ccc(Cl)cc2)c1` was run?
**A.** inconclusive [inhibitor, partial curve]

**Q.** Which Potency does the source give for `CC(=O)N=c1c(C#N)cc2c(=O)n3ccccc3nc2n1Cc1ccccc1` here?
**A.** inconclusive [inhibitor, partial curve]

**Q.** Which Potency does the source give for `CC(=O)Oc1cc2oc(=O)cc(C)c2cc1OC(C)=O` here?
**A.** inconclusive [inhibitor, partial curve]

**Q.** How did the Potency turn out when `CCOC(=O)Cn1nnnc1C(CC)N(Cc1cc2c(C)cc(C)cc2[nH]c1=O)C1CCCC1` (stereo unspecified) was run?
**A.** active: 17.8 µM

**Q.** For `CCc1ccc(NC(=O)CN(c2cccc(C)c2)S(C)(=O)=O)cc1`, which “activity, negative = inhibition” value is on record?
**A.** inactive: 8.45%

**Q.** Which Potency does the source give for `Cc1ccccc1NC(=O)CSc1ccncc1` here?
**A.** inconclusive [inhibitor, single point]

**Q.** How did the Potency turn out when `CCOC(=O)c1cc2c(s1)-c1ccccc1CC2` was run?
**A.** inconclusive [inhibitor, single point]

**Q.** With `COc1ccc(OCC(=O)NNC(=O)c2cccc(C)c2)cc1` as the compound, how does the “activity, negative = inhibition” value read?
**A.** inactive: -4.62%

**Q.** `CS(=O)(=O)NN1C(=O)c2ccccc2NC1c1ccccc1O` (stereo unspecified) was tested. Which Potency did it give?
**A.** inconclusive [inhibitor, single point]

**Q.** `CCCc1nnc(NC(=O)c2cc3ccccc3oc2=O)s1` was tested. Which Potency did it give?
**A.** inconclusive [inhibitor, full curve]

**Q.** Which Potency does the source give for `S=c1[nH]nc(CSCCOc2ccccc2)o1` here?
**A.** active: 20 µM

**Q.** For `CCOCCCNC(=O)C(c1ccc(C)cc1)N(Cc1ccc2c(c1)OCO2)C(=O)c1cnccn1` (stereo unspecified), which Potency is on record?
**A.** inconclusive [inhibitor, single point]

**Q.** With `CCc1c(C)sc(NC(=O)Cn2nc(C)c([N+](=O)[O-])c2C)c1C(N)=O` as the compound, how does the Potency read?
**A.** active: 7.08 µM

**Q.** Which Potency does the source give for `COCCNc1nc(-c2cc3ccccc3o2)cs1` here?
**A.** inconclusive [inhibitor, single point]

**Q.** For `CCCN1C(=O)c2ccccc2NC1c1ccc(C)cc1` (stereo unspecified), which Potency is on record?
**A.** inconclusive [inhibitor, partial curve]

**Q.** For `CCCCN=C1NN=C(c2cccc([N+](=O)[O-])c2)CS1`, which Potency is on record?
**A.** inconclusive [inhibitor, single point]

**Q.** How did the Potency turn out when `CC1CCc2c(sc(NC(=O)c3ccccc3C(=O)O)c2C#N)C1` (stereo unspecified) was run?
**A.** inconclusive [inhibitor, single point]

**Q.** Which Potency does the source give for `O=C(OCn1ncc(Br)c(Br)c1=O)c1ccccc1Cl` here?
**A.** active: 0.398 µM

**Q.** With `Cc1cc(C)c(C)c(OCCCN(C)C)c1` as the compound, how does the Potency read?
**A.** inconclusive [inhibitor, partial curve]

**Q.** How did the Potency turn out when `O=C(CSc1cccc[n+]1[O-])Nc1ccc(C(F)(F)F)cc1[N+](=O)[O-]` was run?
**A.** inconclusive [inhibitor, single point]

**Q.** Which Potency does the source give for `O=C(CC1C(=O)NCCN1CC1CCCCC1)NCc1cc(F)ccc1F` (stereo unspecified) here?
**A.** inconclusive [inhibitor, single point]

**Q.** With `C=CCc1ccc(OCCCCNC2CCCC2)c(OC)c1` as the compound, how does the “activity, negative = inhibition” value read?
**A.** inactive: -5.66%

**Q.** How did the Potency turn out when `COc1ccc(Cl)cc1NC(=O)CNCC(c1ccccc1)N(C)C` (stereo unspecified) was run?
**A.** inconclusive [inhibitor, full curve]

**Q.** Which Potency does the source give for `Cc1ccnc(NC(=O)C23CC4CC(CC(C4)C2)C3)c1` here?
**A.** inconclusive [inhibitor, single point]

**Q.** For `COc1ccc(Cn2c(=O)n(Cc3ccco3)c(=N)c3c4c(sc32)COC(C)(C)C4)cc1`, which Potency is on record?
**A.** inconclusive [inhibitor, single point]

**Q.** For `CCOc1ccc(C(=O)N(Cc2ccc(OC)cc2)Cc2cc3cc(OC)ccc3[nH]c2=O)cc1`, which Potency is on record?
**A.** inconclusive [inhibitor, single point]

**Q.** With `COc1ccccc1-c1ccc2ncnc(NCCNC(C)=O)c2c1` as the compound, how does the Potency read?
**A.** inconclusive [inhibitor, single point]

**Q.** With `Nc1nc(-c2ccccc2)nc2sc3c(c12)CCCC3` as the compound, how does the Potency read?
**A.** inconclusive [inhibitor, single point]

**Q.** With `CC(=O)OCc1cc2cc(C)ccc2[nH]c1=O` as the compound, how does the Potency read?
**A.** inconclusive [inhibitor, single point]

**Q.** For `O=C(c1ccncc1)N(Cc1ccco1)Cc1cc2ccccc2[nH]c1=O`, which Potency is on record?
**A.** inconclusive [inhibitor, single point]

**Q.** For `Nc1nc2nc(SCC(=O)N3CCCc4ccccc43)[nH]c2c(=O)[nH]1`, which “activity, negative = inhibition” value is on record?
**A.** inactive: -5.88%

**Q.** With `CCOc1cc(S(=O)(=O)n2c(C)nc3ccccc32)ccc1F` as the compound, how does the “activity, negative = inhibition” value read?
**A.** inactive: 5.17%

**Q.** For `Cc1nnc(SCc2ccc([N+](=O)[O-])cc2)o1`, which “activity, negative = inhibition” value is on record?
**A.** inactive: -8.11%

**Q.** `O=C(Nc1ccc(-c2cn3ccccc3n2)cc1)c1ccc(Cl)cc1` was tested. Which Potency did it give?
**A.** inconclusive [inhibitor, partial curve]

**Q.** With `COC(=O)c1nc(N)sc1-c1ccccc1` as the compound, how does the Potency read?
**A.** inconclusive [inhibitor, single point]

**Q.** How did the Potency turn out when `CCOC(=O)C1=C(N)N(c2ccccc2)C(=O)C1` was run?
**A.** inconclusive [inhibitor, single point]

**Q.** For `c1ccc2c(c1)OCCOCCOCCO2`, which “activity, negative = inhibition” value is on record?
**A.** inactive: 0.0347%

**Q.** With `O=C(O)CCCC(=O)Nc1ccc(Cl)c(Cl)c1` as the compound, how does the “activity, negative = inhibition” value read?
**A.** inactive: -1.7%

**Q.** Which Potency does the source give for `NC1(C(=O)O)CC(C(=O)O)C1` (stereo unspecified) here?
**A.** inactive

**Q.** `COC(=O)c1ccccc1NC(=O)CC#N` was tested. Which Potency did it give?
**A.** inconclusive [inhibitor, full curve, poor fit]

**Q.** Which Potency does the source give for `O=C(NC1=NCCS1)C1Cc2ccccc2CN1C(=O)c1ccccc1` (stereo unspecified) here?
**A.** inconclusive [inhibitor, single point]

**Q.** With `CCOc1ncccc1C(=O)OCC(=O)Nc1cccc(C(C)=O)c1` as the compound, how does the Potency read?
**A.** inconclusive [inhibitor, single point]

**Q.** Which Potency does the source give for `COc1cc2oc(=O)c(Br)c(C)c2c(OC)c1OC` here?
**A.** active: 12.6 µM

**Q.** For `Cc1ccc2c(Cl)c(C(=O)Nc3nn[nH]n3)sc2c1`, which “activity, negative = inhibition” value is on record?
**A.** inactive: 0.398%

**Q.** Which “activity, negative = inhibition” value does the source give for `COCCNC(=O)C(c1ccc(F)cc1)N(Cc1ccco1)C(=O)CCC(=O)Nc1nccs1` (stereo unspecified) here?
**A.** inactive: 10.4%

**Q.** `CCNc1ccc2c(Cl)cc(=O)oc2c1` was tested. Which Potency did it give?
**A.** inconclusive [inhibitor, partial curve]

**Q.** Which Potency does the source give for `COc1ccc(C2CC(=O)N(CCCN(C)CCc3ccc(OC)c(OC)c3)C2)cc1` (stereo unspecified) here?
**A.** active: 14.1 µM

**Q.** How did the “activity, negative = inhibition” value turn out when `Cc1nc(Nc2cccc(C(C)O)c2)c2nnn(Cc3ccc(F)cc3)c2n1` (stereo unspecified) was run?
**A.** inactive: -1.32%

**Q.** For `O=c1cc(-c2ccc(O)cc2)oc2cccc(O)c12`, which “activity, negative = inhibition” value is on record?
**A.** inactive: -8.39%

**Q.** With `CCOC(=O)c1[nH]c2c(c1-c1ccccc1)C(=O)CC(c1ccc(OC)c(OC)c1)C2` (stereo unspecified) as the compound, how does the Potency read?
**A.** active: 12.6 µM

**Q.** With `O=c1[nH]c(=O)n(CCO)c2nnn(Cc3ccccc3)c12` as the compound, how does the “activity, negative = inhibition” value read?
**A.** inactive: -8.72%

**Q.** Which Potency does the source give for `C=C(CC1([C@@H](NP(=O)(c2ccccc2)c2ccccc2)[C@H]2C[C@@H]2CCCC)CC1)c1cccc(OC)c1` here?
**A.** inconclusive [inhibitor, single point]

**Q.** With `CCOC(=O)C1CCCN(CCC(=O)Nc2cccc(C)c2)C1` (stereo unspecified) as the compound, how does the “activity, negative = inhibition” value read?
**A.** inactive: -5.51%

**Q.** How did the activity, negative = inhibition turn out when `CCOC(=O)C[C@@H](C(=O)OCC)[C@@H]1CCCCC1=O` was run?
**A.** inactive: 0.194% [at 13.5 µM]

**Q.** With `O=C(c1ccccc1)C(C(=O)N1CCc2ccccc2C1)n1ccccc1=O` (stereo unspecified) as the compound, how does the Potency read?
**A.** inconclusive [inhibitor, single point]
